Data as given in the supplement of paper PMC12645437, “Orthogonal IMiD-Degron Pairs Induce Selective Protein Degradation in Cells” (ACS Chemical Biology, 2025).
Some of the results follow.

molecular target: no compound (DMSO); experiment: log2 fold change of degron read counts, EGFP-low vs EGFP+ sorted cells; higher = lower degron-EGFP level without compound (poor expression or instability); settings: compound: DMSO control; 18 h
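Also: jurkat cells carrying a lentiviral library of mutant zinc finger degrons fused to EGFP plus mCherry, mCherry+ cells FACS sorted, degron abundance counted by next-generation sequencing.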

| Sequence | log2 fold change of degron read counts |
| --- | --- |
| FNCNQCGREFTQKGNLLRHIKL | -1.34 |
| FHCPICGRHFTQKGNLLRHIKL | -0.897 |
| FQCNICGANFTQKGNLLRHIKL | -0.546 |
| FNCPVCGAMFTQKGNLLRHIKL | -0.324 |
| FFCNQCGHKFTQKGNLLRHIKL | 0.191 |
| FRCPICGHHFTQKGNLLRHIKL | -0.0734 |
| LLCPICGFRCTQKGNLLRHIKL | 0.477 |
| FLCPICGHRFTQKGNLLRHIKL | -0.567 |
| FNCPICGHDFTQKGNLLRHIKL | -0.81 |
| FLCNQCGRPFTQKGNLLRHIKL | -0.0967 |
| FLCDVCGAYFTQKGNLLRHIKL | -0.886 |
| FCCEICGRNFTQKGNLLRHIKL | -0.608 |
| LHCEICGFVCTQKGNLLRHIKL | -0.0575 |
| FCCPICGRHFTQKGNLLRHIKL | 0.101 |
| FACEVCGANFTQKGNLLRHIKL | -1.68 |
| FRCPICGAYFTQKGNLLRHIKL | 1.08 |
| FSCPICGASFTQKGNLLRHIKL | 0.0799 |
| FFCEICGHNFTQKGNLLRHIKL | -1.21 |
| FQCPICGHGFTQKGNLLRHIKL | -0.263 |
| FDCNQCGASFTQKGNLLRHIKL | -0.791 |
| FWCNVCGAHFTQKGNLLRHIKL | 0.564 |
| FQCPICGHYFTQKGNLLRHIKL | 0.12 |
| LKCEICGFHCTQKGNLLRHIKL | 0.449 |
| FWCEICGRLFTQKGNLLRHIKL | 1.05 |
| FCCNICGASFTQKGNLLRHIKL | -0.633 |

| Sequence | log2 fold change of degron read counts |
| --- | --- |
| FLCPICGRRFTQKGNLLRHIKL | -0.741 |
| FLCDVCGAHFTQKGNLLRHIKL | -0.971 |
| FGCDVCGAWFTQKGNLLRHIKL | 0.0278 |
| FMCDQCGANFTQKGNLLRHIKL | -2.63 |
| FNCSVCGHNFTQKGNLLRHIKL | -0.405 |
| FLCEQCGAAFTQKGNLLRHIKL | -1.24 |
| FVCNQCGAVFTQKGNLLRHIKL | -0.348 |
| FMCPICGRCFTQKGNLLRHIKL | 0.292 |
| FLCPICGRKFTQKGNLLRHIKL | -0.589 |
| FTCNQCGHCFTQKGNLLRHIKL | -0.53 |
| FSCDVCGAQFTQKGNLLRHIKL | -2.2 |
| LDCPICGFVCTQKGNLLRHIKL | 0.272 |
| FLCNQCGHYFTQKGNLLRHIKL | 0.925 |
| FFCEICGAHFTQKGNLLRHIKL | -0.388 |
| FECDVCGARFTQKGNLLRHIKL | -1.99 |
| FCCSVCGHSFTQKGNLLRHIKL | -0.576 |
| FICPQCGAPFTQKGNLLRHIKL | -0.576 |
| FNCDQCGAHFTQKGNLLRHIKL | -0.895 |
| FVCEICGRPFTQKGNLLRHIKL | -1.44 |
| FMCSVCGHLFTQKGNLLRHIKL | 0.155 |
| FCCSVCGHGFTQKGNLLRHIKL | -0.225 |
| LSCNQCGFFCTQKGNLLRHIKL | 1.55 |
| LHCEICGFNCTQKGNLLRHIKL | 0.152 |
| FNCPVCGAFFTQKGNLLRHIKL | 0.451 |
| FMCEVCGAKFTQKGNLLRHIKL | -1.73 |
